Data on 1 molecule can be found in patent US9499612B2, “Antigen binding constructs” (Glaxo Group Limited, priority 2011, dated 2016).

Test [1] has as its target T1, rhVEGF165 (Homo sapiens, UniProt P15692).
T1 construct: made in house; host or cells: HEK293 cells, transient transfection
T1 sequence (P15692 27-191 isoform P15692-4): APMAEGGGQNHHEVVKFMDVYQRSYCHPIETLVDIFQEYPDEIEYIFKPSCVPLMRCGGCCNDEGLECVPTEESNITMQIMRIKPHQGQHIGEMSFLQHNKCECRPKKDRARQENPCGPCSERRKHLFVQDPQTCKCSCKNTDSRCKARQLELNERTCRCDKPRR
In words: BIACORE T100 SPR binding to VEGF165 at 37° C. The following applies: Table 11A. The protocol: (§1) The run was carried out at 37° C., using HBS-EP as the running buffer.
as §1, §1, §1, §1
A general note: SPR reads the build-up and loss of mass on a sensor chip optically.

Test [2] concerns the target T1, rhVEGF165. In words: Modified MSD assay: binding to VEGF after pre-saturation with the other dAb format. The following applies: pre-saturation ≧3 μg/mL; FIG. 2A/2B. The protocol: A MSD™ high bind 96 well plate (MSD™ L11XB-3) was coated with 3 μg/mL rhVEGF165 (sourced ‘in house’ from transient transfection of HEK293 cells) in PBS (25 μl/well), covered with a plate sealer and incubated overnight at 4° C. The next day the MSD™ plate was washed 3×300 μl/well with Tris wash buffer and blotted over a pad of tissue to remove excess wash buffer from the wells. The MSD™ plate was then blocked with 3% BSA in PBS (250 μl/well) and incubated shaking (750 RPM) at room temperature for 1 hour. […] The MSD™ plate was washed again before the addition of DMS1576 (25 μl/well, 0-100 ng/ml) and incubated shaking (750 RPM) at room temperature for 1 hour. […] Prior to measurement of the electrochemiluminescence in a MSD™ SECTOR IMAGER 6000™ MSD™ plate was washed and 150 μL/well of 2× Read Buffer T (MSD™ R92TC-1) was added.
The next day the MSD™ plate was washed 3×300 μl/well with Tris wash buffer and blotted over a pad of tissue to remove excess wash buffer from the wells. […] Prior to measurement of the electrochemiluminescence in a MSD™ Sector Imager 6000, the MSD™ plate was washed and 15011/well of 2× Read Buffer T (MSD™ R92TC-1) was added.

B1: DMS30000: Vk Fc-dAb (SEQ ID NO:3 & 31); DT02-K-044-085 dAb, (GS(TVAAPSGS)x3) C-terminal linker (protein)
chain: [human IgG1 Fc and a few adjoining residues not shown]GSTVAAPSGSTVAAPSGSTVAAPSGSDIQMTQSPSSLSASVGDRVTITCRASQWIGPELKWYQQKPGKAPKLLIYHGSILQSGVPSRFSGSGSGTDFTLTISSLQPEDFATYYCQQYMYYPHTFGQGTKVEIKR
modifications: C-terminal Fc fusion of K-044-085 DAB (GS(TVAAPSGS)x3 Linker) Fc-dAb nucleic acid sequence identified using molecular biology techniques.
As for B1, the Kd entry with rhVEGF165 [1] (37 °C) is “Too tight”. The fit result with rhVEGF165 [1] (fit to 1:1 model) was “ok”. Besides, the “binding to VEGF165 pre-saturated with the other molecule (in words)” value with rhVEGF165 [2] is recorded as “bind VEGF165 which has been pre-saturated”.
